Test results reported in the supplement of paper PMC8728848.
The other results are listed elsewhere or left out.

Assays:
Assay in all cases: glycan array binding signal (z-score within array); higher = stronger binding
Conditions in all cases: glycan notation: IUPAC condensed, linker removed
[1] = target: Neu5Ac(a2-3)Gal(b1-4)GlcNAc(b1-3)Gal(b1-4)GlcNAc(b1-3)Gal(b1-4)GlcNAc
Procedure, shortened: (§1)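 Glycan array data came from 3228 arrays in the Consortium for Functional Glycomics database, and only arrays with an available protein sequence were kept. Glycan names were put into IUPAC-condensed notation, and columns mapping to the same glycan were averaged. The binding signal is a within-array Z-score, averaged across arrays of one protein sequence run at different concentrations or buffers and across linkers. A negative Z-score can be read as non-binding.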

[2] = target: Neu5Ac(a2-3)Gal(b1-4)GlcNAc(b1-3)Gal(b1-4)GlcNAc(b1-3)Gal(b1-4)GlcNAc(b1-2)Man(a1-3)[Neu5Ac(a2-3)Gal(b1-4)GlcNAc(b1-3)Gal(b1-4)GlcNAc(b1-3)Gal(b1-4)GlcNAc(b1-2)Man(a1-6)]GalNAc
Procedure, shortened: as §1

[3] = target: Neu5Ac(a2-3)Gal(b1-4)GlcNAc(b1-3)Gal(b1-4)GlcNAc(b1-3)GalNAc
Procedure, shortened: as §1

[4] = target: Neu5Ac(a2-3)Gal(b1-4)GlcNAc(b1-3)Gal(b1-4)GlcNAc(b1-3)[Neu5Ac(a2-3)Gal(b1-4)GlcNAc(b1-3)Gal(b1-4)GlcNAc(b1-6)]GalNAc
Procedure, shortened: as §1

[5] = target: Neu5Ac(a2-3)Gal(b1-4)GlcNAc(b1-3)Gal(b1-4)GlcNAc(b1-6)[Gal(b1-3)]GalNAc
Procedure, shortened: as §1

[6] = target: Neu5Ac(a2-3)Gal(b1-4)GlcNAc(b1-3)Gal(b1-4)[Fuc(a1-3)]GlcNAc
Procedure, shortened: as §1

[7] = target: Neu5Ac(a2-3)Gal(b1-4)GlcNAc(b1-3)GalNAc
Procedure, shortened: as §1

[8] = target: Neu5Ac(a2-3)Gal(b1-4)GlcNAc(b1-3)[Neu5Ac(a2-3)Gal(b1-4)GlcNAc(b1-6)]GalNAc
Procedure, shortened: as §1

[9] = target: Neu5Ac(a2-3)Gal(b1-4)GlcNAc(b1-6)GalNAc
Procedure, shortened: as §1

[10] = target: Neu5Ac(a2-3)Gal(b1-4)GlcNAc(b1-6)[Gal(b1-3)]GalNAc
Procedure, shortened: as §1

[11] = target: Neu5Ac(a2-3)Gal(b1-4)GlcNAc(b1-6)[Neu5Ac(a2-3)Gal(b1-3)]GalNAc
Procedure, shortened: as §1

[12] = target: Neu5Ac(a2-3)Gal(b1-4)GlcNAc6S
Procedure, shortened: as §1

[13] = target: Neu5Ac(a2-3)Gal(b1-4)[Fuc(a1-3)]GlcNAc
Procedure, shortened: as §1

[14] = target: Neu5Ac(a2-3)Gal(b1-4)[Fuc(a1-3)]GlcNAc(b1-2)Man
Procedure, shortened: as §1

[15] = target: Neu5Ac(a2-3)Gal(b1-4)[Fuc(a1-3)]GlcNAc(b1-3)Gal
Procedure, shortened: as §1

[16] = target: Neu5Ac(a2-3)Gal(b1-4)[Fuc(a1-3)]GlcNAc(b1-3)Gal(b1-4)GlcNAc
Procedure, shortened: as §1

[17] = target: Neu5Ac(a2-3)Gal(b1-4)[Fuc(a1-3)]GlcNAc(b1-3)Gal(b1-4)[Fuc(a1-3)]GlcNAc(b1-3)Gal(b1-4)[Fuc(a1-3)]GlcNAc
Procedure, shortened: as §1

[18] = target: Neu5Ac(a2-3)Gal(b1-4)[Fuc(a1-3)]GlcNAc(b1-3)GalNAc
Procedure, shortened: as §1

[19] = target: Neu5Ac(a2-3)Gal(b1-4)[Fuc(a1-3)]GlcNAc(b1-6)[Gal(b1-3)]GalNAc
Procedure, shortened: as §1

[20] = target: Neu5Ac(a2-3)Gal(b1-4)[Fuc(a1-3)]GlcNAc(b1-6)[Neu5Ac(a2-3)Gal(b1-3)]GalNAc
Procedure, shortened: as §1

[21] = target: Neu5Ac(a2-3)Gal(b1-4)[Fuc(a1-3)]GlcNAc6S
Procedure, shortened: as §1

[22] = target: Neu5Ac(a2-3)Gal6S(b1-4)GlcNAc
Procedure, shortened: as §1

[23] = target: Neu5Ac(a2-3)Gal6S(b1-4)[Fuc(a1-3)]GlcNAc
Procedure, shortened: as §1

Neu5Ac(a2-3)GalNAc = target: Neu5Ac(a2-3)GalNAc
Procedure, shortened: as §1

[24] = target: Neu5Ac(a2-3)GalNAc(b1-4)GlcNAc
Procedure, shortened: as §1

[25] = target: Neu5Ac(a2-3)[GalNAc(b1-4)]Gal(b1-4)Glc
Procedure, shortened: as §1

[26] = target: Neu5Ac(a2-3)[GalNAc(b1-4)]Gal(b1-4)GlcNAc
Procedure, shortened: as §1

[27] = target: Neu5Ac(a2-3)[GalNAc(b1-4)]Gal(b1-4)GlcNAc(b1-3)GalNAc
Procedure, shortened: as §1

[28] = target: Neu5Ac(a2-3)[Neu5Ac(a2-6)]GalNAc
Procedure, shortened: as §1

Neu5Ac(a2-6)Gal = target: Neu5Ac(a2-6)Gal
Procedure, shortened: as §1

[29] = target: Neu5Ac(a2-6)Gal(b1-3)GlcNAc(b1-3)[Gal(b1-4)GlcNAc(b1-6)]Gal(b1-4)Glc
Procedure, shortened: as §1

Neu5Ac(a2-6)Gal(b1-4)Glc = target: Neu5Ac(a2-6)Gal(b1-4)Glc
Procedure, shortened: as §1

[30] = target: Neu5Ac(a2-6)Gal(b1-4)GlcNAc
Procedure, shortened: as §1

[31] = target: Neu5Ac(a2-6)Gal(b1-4)GlcNAc(b1-2)Man
Procedure, shortened: as §1

[32] = target: Neu5Ac(a2-6)Gal(b1-4)GlcNAc(b1-2)Man(a1-3)Man(b1-4)GlcNAc(b1-4)GlcNAc
Procedure, shortened: as §1

[33] = target: Neu5Ac(a2-6)Gal(b1-4)GlcNAc(b1-2)Man(a1-3)[Gal(b1-4)GlcNAc(b1-2)Man(a1-6)]Man(b1-4)GlcNAc(b1-4)GlcNAc
Procedure, shortened: as §1

[34] = target: Neu5Ac(a2-6)Gal(b1-4)GlcNAc(b1-2)Man(a1-3)[GlcNAc(b1-2)Man(a1-6)]Man(b1-4)GlcNAc(b1-4)GlcNAc
Procedure, shortened: as §1

[35] = target: Neu5Ac(a2-6)Gal(b1-4)GlcNAc(b1-2)Man(a1-3)[GlcNAc(b1-4)][Neu5Ac(a2-6)Gal(b1-4)GlcNAc(b1-2)Man(a1-6)]Man(b1-4)GlcNAc(b1-4)GlcNAc
Procedure, shortened: as §1

B1: Si Bti9 1b-HA (Solanum lycopersicum) (protein)
chain: MFESRPRSVLSLGVFVILVYLSSVPLPVNSQCNRGCDLALASFYVWRGSNLTLISEMFSTSIADIVSYNNRDNIPNQDSVIAGTRINIPFRCDCLNDGEVLGHAFPYRVKSGDTYDLVARNYSDLTTAQWMMKFNSYPENNIPNTVNLSVVVNCSCGNSDVSKDFGLFVTYPVRAEDNLTSVASAANVSEDIIRRYNPAAVSILDIGQGIIYIPGRDRNGNFPPLPTSTDGLSGGAKAPLFFNPAFLYKVVELKLAGRSRTSGYPYDVPDYAGYPYDVPDYALEVLFQ
[1]
  glycan array binding signal (z-score): -0.576
[2]
  glycan array binding signal (z-score): 1.35
[3]
  glycan array binding signal (z-score): -0.222
[4]
  glycan array binding signal (z-score): -0.139
[5]
  glycan array binding signal (z-score): 0.187
[6]
  glycan array binding signal (z-score): 0.251
[7]
  glycan array binding signal (z-score): -0.144
[8]
  glycan array binding signal (z-score): -0.367
[9]
  glycan array binding signal (z-score): -0.422
[10]
  glycan array binding signal (z-score): -0.486
[11]
  glycan array binding signal (z-score): -0.297
[12]
  glycan array binding signal (z-score): -0.072
[13]
  glycan array binding signal (z-score): -0.22
[14]
  glycan array binding signal (z-score): -0.414
[15]
  glycan array binding signal (z-score): -0.151
[16]
  glycan array binding signal (z-score): -0.417
[17]
  glycan array binding signal (z-score): -0.379
[18]
  glycan array binding signal (z-score): -0.068
[19]
  glycan array binding signal (z-score): 0.154
[20]
  glycan array binding signal (z-score): -0.029
[21]
  glycan array binding signal (z-score): -0.438
[22]
  glycan array binding signal (z-score): -0.008
[23]
  glycan array binding signal (z-score): -0.38
Neu5Ac(a2-3)GalNAc
  glycan array binding signal (z-score): -0.396
[24]
  glycan array binding signal (z-score): -0.226
[25]
  glycan array binding signal (z-score): -0.316
[26]
  glycan array binding signal (z-score): -0.124
[27]
  glycan array binding signal (z-score): -0.233
[28]
  glycan array binding signal (z-score): 0.12
Neu5Ac(a2-6)Gal
  glycan array binding signal (z-score): -0.348
[29]
  glycan array binding signal (z-score): -0.236
Neu5Ac(a2-6)Gal(b1-4)Glc
  glycan array binding signal (z-score): -0.207
[30]
  glycan array binding signal (z-score): -0.275
[31]
  glycan array binding signal (z-score): -0.37
[32]
  glycan array binding signal (z-score): -0.381
[33]
  glycan array binding signal (z-score): -0.536
[34]
  glycan array binding signal (z-score): -0.361
[35]
  glycan array binding signal (z-score): -0.539
